{"source": "paper PMC13083723", "about": "(Patterns, 2026)", "note": "In all, about 5,400 compounds went through this assay and about 190 (3.5%) showed an effect of 50% or more. The list shows a part of the results. Residues, ends and D or L forms follow the SMILES beside them.", "data": [{"test_system": "Vero-E6", "test": "primary screen, phospholipidosis by LipidTOX staining; higher = more effect of the substance", "conditions": "10 µM", "summary_of_the_method": "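Single-concentration screen at 10 μM, with DMSO 0.1 v/v % and amiodarone 10 μM as controls. Read-out is LipidTOX Red phospholipid staining, which tolerates aldehyde fixation, in Vero-E6 cells.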", "units": {"result_ITMP": "%"}, "values": [{"smiles": "CC(C)(c1ccc(O)cc1)c1ccc(O)cc1", "result_ITMP": -3.93}, {"smiles": "N[C@@H](CC(=O)Nc1ccc(Oc2cc(F)c(F)cc2Br)cc1)C(=O)O", "result_ITMP": -6.52}, {"smiles": "CC1(C)NC(=O)N(c2ccc([N+](=O)[O-])c(C(F)(F)F)c2)C1=O", "result_ITMP": -1.03}, {"smiles": "CN(C)Cc1ccc(-c2nc3cccc4c3n2CCNC4=O)cc1", "result_ITMP": 10.8}, {"smiles": "O=C(/C=C\\n1cnc(-c2cc(C(F)(F)F)cc(C(F)(F)F)c2)n1)NNc1cnccn1", "result_ITMP": 17.5}, {"smiles": "CCCCCCc1ccc(O)cc1O", "result_ITMP": -4.33}, {"smiles": "Cc1[nH]c(/C=C2\\C(=O)Nc3ccc(S(=O)(=O)N(C)c4cccc(Cl)c4)cc32)c(C)c1C(=O)N1CCN(C)CC1", "result_ITMP": 7.98}, {"smiles": "CCCCC(CC)CNC(=N)NC(=N)NCCCCCCNC(=N)NC(=N)NCC(CC)CCCC", "note": "(stereo not shown)", "result_ITMP": 46.9}, {"smiles": "CCC(=O)OCC(=O)[C@@]1(OC(=O)CC)[C@@H](C)CC2C3CCC4=CC(=O)C=C[C@]4(C)C3(F)[C@@H](O)C[C@@]21C", "note": "(stereo partly shown)", "result_ITMP": -3.71}, {"smiles": "COC(=O)[C@@H]1[C@H]2C[C@H]3c4[nH]c5ccccc5c4CCN3C[C@@H]2CC[C@@H]1O", "result_ITMP": 5.05}, {"smiles": "CCC(C)n1ncn(-c2ccc(N3CCN(c4ccc(OC[C@H]5CO[C@](Cn6cncn6)(c6ccc(Cl)cc6Cl)O5)cc4)CC3)cc2)c1=O", "note": "(stereo partly shown)", "result_ITMP": -3.48}, {"smiles": "CCOc1cc(/C=C2/C(=O)N(c3ccccc3)N=C2C)cc(Cl)c1OCC(=O)OC", "result_ITMP": -2.3}, {"smiles": "CN[C@H]1C[C@@H](N)[C@H](O)[C@@H](O[C@@H]2O[C@H](CO)[C@H](O)[C@@H]3OC4(O[C@H]23)O[C@H]([C@@H](N)CO)[C@H](O)[C@H](O)[C@H]4O)[C@@H]1O", "note": "(stereo partly shown)", "result_ITMP": -4.79}, {"smiles": "COc1ccc(C(=O)C2CCN(CC(=O)N(Cc3nc4c(c(=O)[nH]3)COCC4)CC3CC3)CC2)cc1", "result_ITMP": 0.39}, {"smiles": "COC(=O)[C@H](Cc1cccc(C(=N)N)c1)[C@@H](C)NC(=O)c1ccc(-c2cc[n+]([O-])cc2)cc1", "result_ITMP": 1.38}, {"smiles": "Cc1nc(NC(=O)N2CCC[C@H]2C(N)=O)sc1-c1ccnc(C(C)(C)C(F)(F)F)c1", "result_ITMP": 7.72}, {"smiles": "O=C(CCCCCCCn1cc(-c2cccnc2)nn1)Nc1ccccc1-c1ccccc1", "result_ITMP": -1.05}, {"smiles": "CCCCc1nc(C)c(CC(=S)N(C)C)c(=O)n1Cc1ccc(-c2ccccc2-c2nnn[nH]2)cc1", "result_ITMP": 0.5}, {"smiles": "Nc1nncs1", "result_ITMP": -3.67}, {"smiles": "CCC(=O)NC[C@H](Cc1ccc(OCCc2nc(-c3ccccc3)oc2C)cc1)N/C(C)=C\\C(=O)c1ccc(C(F)(F)F)cc1", "result_ITMP": -1.71}, {"smiles": "C=C[C@@H]1C[C@]1(NC(=O)[C@@H]1C[C@@H](Oc2ncc(OC)c3ccc(Cl)cc23)CN1C(=O)[C@@H](NC(=O)OC(C)(C)C)C(C)(C)C)C(=O)NS(=O)(=O)C1CC1", "result_ITMP": -1.19}, {"smiles": "Fc1cc(-c2cccc3ncc(-c4cnn(C5CCNCC5)c4)nc23)cc(F)c1CN1CCOCC1", "result_ITMP": 73.3}, {"smiles": "Nc1cc(-c2ccncc2)c[nH]c1=O", "result_ITMP": -4.36}, {"smiles": "CCOC(=O)c1c(C)n(C)c2ccc(O)cc12", "result_ITMP": -4.04}, {"smiles": "c1ccc2c(c1)CCCc1cc(NCCN3CCOCC3)nnc1-2", "result_ITMP": 1.05}, {"smiles": "CC(N)C12CC3CC(CC(C3)C1)C2", "note": "(stereo not shown)", "result_ITMP": -4.54}, {"smiles": "N#Cc1ccc(Oc2ccc3c(c2)COB3O)cc1", "result_ITMP": -2.68}, {"smiles": "O=C(NCC(=O)N1CCCC1)Nc1ccc2cnccc2c1", "result_ITMP": -2.35}, {"smiles": "O=C([O-])[C@H](CC(=O)N1C[C@H]2CCCC[C@H]2C1)Cc1ccccc1", "result_ITMP": -4.71}, {"smiles": "CC(=O)OCC(=O)[C@@]1(O)CCC2C3CCC4=CC(=O)CC[C@]4(C)C3[C@@H](O)C[C@@]21C", "note": "(stereo partly shown)", "result_ITMP": -4.93}, {"smiles": "CN(CCOc1ccc(CC2SC(=O)NC2=O)cc1)c1ccccn1", "note": "(stereo not shown)", "result_ITMP": 0.43}, {"smiles": "c1ccc2nc(C3=NCCN3)cnc2c1", "result_ITMP": -8.6}, {"smiles": "CCOP(=S)(OCC)Oc1nc(Cl)c(Cl)cc1Cl", "result_ITMP": -6.6}, {"smiles": "CN(C)c1ccc2c(c1)Sc1cc(N(C)C)ccc1N2", "result_ITMP": -0.16}, {"smiles": "CCOC(=O)c1ncn2c1CN(C)C(=O)c1cc(N=[N+]=[N-])ccc1-2", "result_ITMP": -4.86}, {"smiles": "OC[C@H]1NC[C@@H](O)[C@@H](O)[C@@H]1O", "result_ITMP": -2.05}, {"smiles": "COc1ccc(/C=C2\\CCCN=C2c2cccnc2)c(OC)c1", "result_ITMP": 1.1}, {"smiles": "CCCc1nc(C(C)(C)O)c(C(=O)O)n1Cc1ccc(-c2ccccc2-c2nnn[nH]2)cc1", "result_ITMP": -2.67}, {"smiles": "N[C@@H](Cc1ccc(O)cc1)C(=O)NCC(=O)NCC(=O)O", "note": "(H-Tyr-Gly-Gly-OH)", "result_ITMP": -2.1}, {"smiles": "Cc1ccc2c(Cl)cc(Cl)c(O)c2n1", "result_ITMP": -4.16}, {"smiles": "N#Cc1cc(F)cc(-c2nc(-c3ccc(F)cn3)no2)c1", "result_ITMP": -1.87}, {"smiles": "N=C(N)N/N=C/c1c(Cl)cccc1Cl", "result_ITMP": 1.84}, {"smiles": "CCC[C@@H]1CC2=CC(=O)CC[C@]2(C)[C@H]2CC[C@@]3(C)[C@@H](CC[C@@]3(O)CCC(=O)[O-])[C@H]12", "result_ITMP": -2.26}, {"smiles": "OC(CCN1CCCCC1)(c1ccccc1)C1CCCCC1", "note": "(stereo not shown)", "result_ITMP": 23.4}, {"smiles": "CC1(C)OC[C@H](NC(=O)Nc2ccc(Br)cc2Br)[C@H](c2ccccc2)O1", "result_ITMP": 3.34}, {"smiles": "Cc1ccc(O)c(/N=N/c2ccccc2)n1", "result_ITMP": -1.01}, {"smiles": "Cc1ccc2nc(N)nc(O)c2c1Sc1ccncc1", "result_ITMP": 3.27}, {"smiles": "CCC(=O)c1cc(-c2ccc(Cl)cc2)n(-c2ccc(S(N)(=O)=O)cc2)c1C", "result_ITMP": 2.2}, {"smiles": "C[C@H](Oc1cc(-c2cnn(C3CCNCC3)c2)cnc1N)c1c(Cl)ccc(F)c1Cl", "result_ITMP": 70.2}, {"smiles": "CN(C)CCOC(=O)COc1ccc(Cl)cc1", "result_ITMP": -9.35}, {"smiles": "CN1CC[C@@]2(C)c3cc(O)ccc3N(C)[C@H]12", "result_ITMP": 24.8}, {"smiles": "Brc1c(NC2=NCCN2)ccc2nccnc12", "result_ITMP": 0.37}, {"smiles": "N[C@@H](CC(=O)NO)C(=O)O", "result_ITMP": -6.2}, {"smiles": "CC(=O)OCC(=O)[C@@]12OC(C)(C)O[C@@H]1CC1C3C[C@H](F)C4=CC(=O)C=C[C@]4(C)[C@@]3(F)[C@@H](O)C[C@@]12C", "note": "(stereo partly shown)", "result_ITMP": -3.35}, {"smiles": "C#Cc1cnc(O)nc1O", "result_ITMP": -3.59}, {"smiles": "COc1ccc(-c2cc(C(F)F)nn2-c2ccc(S(N)(=O)=O)cc2)cc1F", "result_ITMP": -2.05}, {"smiles": "CCCN1CCO[C@@H]2c3cc(O)ccc3OC[C@H]21", "result_ITMP": -3.86}, {"smiles": "CC(O)COC[C@H]1OC2O[C@H]3[C@H](O)[C@@H](O)C(O[C@H]4[C@H](O)[C@@H](O)C(O[C@H]5[C@H](O)[C@@H](O)C(O[C@H]6[C@H](O)[C@@H](O)C(O[C@H]7[C@H](O)[C@@H](O)C(O[C@H]8[C@H](O)[C@@H](O)C(O[C@H]1[C@H](O)[C@H]2O)O[C@@H]8COCC(C)O)O[C@@H]7COCC(C)O)O[C@@H]6COCC(C)O)O[C@@H]5COCC(C)O)O[C@@H]4COCC(C)O)O[C@@H]3COCC(C)O", "note": "(stereo partly shown)", "result_ITMP": -3.69}, {"smiles": "O=C(O)CCc1cc(C(=O)c2ccc(OC3CCCC3)cc2O)ccc1OCc1ccc2c(O)noc2c1", "result_ITMP": 0.52}, {"smiles": "CCCCC1OC(=O)c2ccccc21", "note": "(stereo not shown)", "result_ITMP": 0.34}, {"smiles": "O=C(O)c1cc(O)c2ccc(Cl)cc2n1", "result_ITMP": 0.78}, {"smiles": "CCC[C@@H]1C[C@@H](C(=O)N[C@@H](C2O[C@H](SC)[C@H](O)[C@@H](O)[C@H]2O)[C@H](C)Cl)N(C)C1", "note": "(stereo partly shown)", "result_ITMP": -0.24}, {"smiles": "NC(=O)C1=CN([C@@H]2O[C@H](COP(=O)([O-])OP(=O)([O-])OC[C@H]3O[C@@H](n4cnc5c(N)ncnc54)[C@H](O)[C@@H]3O)[C@@H](O)[C@H]2O)C=CC1", "result_ITMP": -10.8}, {"smiles": "CC(C)CN(C[C@@H](OP(=O)(O)O)[C@H](Cc1ccccc1)NC(=O)O[C@H]1CCOC1)S(=O)(=O)c1ccc(N)cc1", "result_ITMP": 1.29}, {"smiles": "CC[C@@H](Nc1c(Nc2cccc(C(=O)N(C)C)c2O)c(=O)c1=O)c1ccc(C)o1", "result_ITMP": -0.76}, {"smiles": "CCCCCCCCN=c1ccn(CCCCCCCCCCn2ccc(=NCCCCCCCC)cc2)cc1", "result_ITMP": 25.9}, {"smiles": "CCCC[P+](CCCC)(CCCC)Cc1ccc(NC(=O)[C@H](Cc2ccc3ccccc3c2)N/C(=N/C2CCCCC2)NC2CCCCC2)cc1", "result_ITMP": 9.79}, {"smiles": "COc1ccc(C(=O)NCc2ccc(OCCN(C)C)cc2)cc1OC", "result_ITMP": 6.48}, {"smiles": "N[C@@H](C(=O)N[C@@H]1C(=O)N2C(C(=O)O)=C(Cl)CS[C@H]12)c1ccccc1", "result_ITMP": -2.38}, {"smiles": "CN1CCN(c2cccc3[nH]c(=O)oc23)CC1", "result_ITMP": -1.83}, {"smiles": "CCCCCCCCCCCCCCCC[n+]1ccccc1", "result_ITMP": -1.64}, {"smiles": "CCC(C)[C@H]1O[C@]2(CC[C@@H]1C)C[C@@H]1C[C@@H](C/C=C(\\C)[C@@H](OC3C[C@H](OC)C(O[C@H]4C[C@H](OC)[C@@H](O)[C@H](C)O4)[C@H](C)O3)[C@@H](C)/C=C/C=C3\\CO[C@@H]4[C@H](O)C(C)=C[C@@H](C(=O)O1)[C@]34O)O2", "note": "(stereo partly shown)", "result_ITMP": -4.22}, {"smiles": "O=C1c2ccccc2S(=O)(=O)N1CCCCN1CCN(c2ncccn2)CC1", "result_ITMP": -10.7}, {"smiles": "COc1ccc2c(c1)c(CC(=O)OCC(C(=O)O)c1ccccc1)c(C)n2C(=O)c1ccc(Cl)cc1", "note": "(stereo not shown)", "result_ITMP": 5.87}, {"smiles": "Cn1c([N+](=O)[O-])cnc1COC(N)=O", "result_ITMP": -1.34}, {"smiles": "NC(N)=O", "result_ITMP": -2.14}, {"smiles": "CCN(c1cc(-c2ccc(CN3CCOCC3)cc2)cc(C(=O)NCc2c(C)cc(C)[nH]c2=O)c1C)C1CCOCC1", "result_ITMP": -11.2}, {"smiles": "Cc1cccc(C)c1NC(=O)CN1CCCCCC1", "result_ITMP": -0.91}, {"smiles": "O=C(O)CC1CC(c2ccccc2)=NO1", "note": "(stereo not shown)", "result_ITMP": -4.92}, {"smiles": "COc1ccc(C2Oc3c(CC=C(C)C)c(O)cc(O)c3C(=O)C2=O)cc1", "note": "(stereo not shown)", "result_ITMP": -2.61}, {"smiles": "CCCn1c(=O)c2nc(-c3ccccc3)[nH]c2n(CCC)c1=O", "result_ITMP": -7.21}, {"smiles": "Cc1ccc2c(c1)C(=O)C1(O)CCN(c3ccccc3)C1=N2", "note": "(racemic)", "result_ITMP": -2.01}]}]}
